Reference: patent US10005846B2, “Anti-transglutaminase 2 antibodies” (MEDICAL RESEARCH COUNCIL TECHNOLOGY, priority 2012, dated 2018)
Positions count from the first letter of the chain named. Blank lines part the entries; values can stand above or below the molecule they belong to.

Columns and labels:
Format in all cases: biochemical
[1] = biological target: T1, human TG2 (Homo sapiens, UniProt P21980); assay: Fluorescence-based transglutaminase assay (dansylated lysine into N,N-dimethylated casein), human TG2; set-up: purchased Zedira GmbH T002; settings: 1 nM human TG2
T1 sequence (P21980 1-687): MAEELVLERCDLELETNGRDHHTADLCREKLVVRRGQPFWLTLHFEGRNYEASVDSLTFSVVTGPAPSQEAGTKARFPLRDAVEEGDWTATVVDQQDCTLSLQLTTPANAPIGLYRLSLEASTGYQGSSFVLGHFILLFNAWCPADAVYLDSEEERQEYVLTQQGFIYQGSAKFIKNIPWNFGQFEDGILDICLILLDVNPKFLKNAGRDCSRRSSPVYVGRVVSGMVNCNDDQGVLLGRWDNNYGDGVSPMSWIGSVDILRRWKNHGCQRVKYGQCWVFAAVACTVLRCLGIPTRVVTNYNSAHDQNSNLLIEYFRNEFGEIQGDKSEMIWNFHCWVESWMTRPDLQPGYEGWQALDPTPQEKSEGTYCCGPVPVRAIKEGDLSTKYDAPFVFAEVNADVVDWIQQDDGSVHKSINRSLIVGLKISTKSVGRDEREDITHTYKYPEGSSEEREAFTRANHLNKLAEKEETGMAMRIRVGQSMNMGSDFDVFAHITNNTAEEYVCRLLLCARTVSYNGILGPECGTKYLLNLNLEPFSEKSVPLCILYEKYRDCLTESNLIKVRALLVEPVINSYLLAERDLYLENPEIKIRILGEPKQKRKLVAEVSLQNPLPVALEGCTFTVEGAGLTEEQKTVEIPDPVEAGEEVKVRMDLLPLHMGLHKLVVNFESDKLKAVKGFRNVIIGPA
Protocol: Transglutaminase activities of purified human (Zedira) or cynomogolus monkey TG2 enzymes (Trenzyme) were measured by incorporation of dansylated lysine K×D (Zedira) into N,N-dimethylated casein (DMC, Sigma). Human or cynomogolus monkey TG2 were diluted in transamidation buffer (25 mM HEPES pH 7.4 containing 250 mM NaCl, 2 mM MgCl2, 5 mM CaCl2, 0.2 mM DTT and 0.05% v/v Pluronic F-127) to 1 nM and 10 nM respectively and mixed with various concentrations of protein-A purified murine, chimeric or humanised TG2 antibodies for 180 min at room temperature in 384-well black microtiter plates (Corning). Reactions were initiated by addition of DMC and K×D to a final concentration of 10 uM and 20 uM respectively and a final reaction volume of 30 ul, and allowed to proceed at RT for 180 min and the increase in fluorescence (RFU) (excitation at 280 nm, emission 550 nm) monitored using a Tecan Safire^2 plate reader. Data were normalised to percentage activity where % activity=(RFU test antibody−RFU low controls)/RFU high controls−RFU low controls)×100, where low controls contained all components except enzyme and high controls contained all components except antibody.
Antibody dose response curves were plotted using GraphPad prism software and fitted using a 4-parameter logistical model to return IC50 and other statistical parameters. The results are illustrated in FIGS. 29 to 33.

[2] = biological target: T2, rat TG2 (Rattus norvegicus, UniProt Q9WVJ6); assay: 3H-putrescine incorporation TG activity assay with rat TG2; settings: amount of IgG required to inhibit 1 ng of TG2; 25 ng rat TG2
T2 sequence (Q9WVJ6 1-686): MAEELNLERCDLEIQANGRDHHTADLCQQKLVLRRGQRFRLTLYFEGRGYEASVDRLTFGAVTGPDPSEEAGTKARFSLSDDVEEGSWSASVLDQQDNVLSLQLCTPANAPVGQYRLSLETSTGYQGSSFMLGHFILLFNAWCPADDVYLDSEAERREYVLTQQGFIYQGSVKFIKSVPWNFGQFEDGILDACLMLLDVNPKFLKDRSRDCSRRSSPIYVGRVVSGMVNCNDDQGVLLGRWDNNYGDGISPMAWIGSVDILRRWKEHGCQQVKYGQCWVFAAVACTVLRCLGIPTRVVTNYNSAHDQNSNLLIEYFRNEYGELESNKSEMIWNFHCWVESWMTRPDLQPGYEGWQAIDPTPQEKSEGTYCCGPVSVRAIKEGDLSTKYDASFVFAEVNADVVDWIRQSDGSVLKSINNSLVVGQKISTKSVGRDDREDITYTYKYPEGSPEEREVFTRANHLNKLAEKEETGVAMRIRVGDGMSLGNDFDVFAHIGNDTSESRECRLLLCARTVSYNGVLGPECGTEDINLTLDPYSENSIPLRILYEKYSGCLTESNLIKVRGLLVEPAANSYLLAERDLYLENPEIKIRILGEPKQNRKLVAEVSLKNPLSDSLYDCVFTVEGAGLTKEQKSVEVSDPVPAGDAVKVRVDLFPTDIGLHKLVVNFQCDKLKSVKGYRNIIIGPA
Protocol: (§1) To determine an IC50 value for each antibody against human, rat and mouse the ^3H Putrescine assay was used. 100 ng of human TG2 or 25 ng of mouse and rat TG2 was used to generate a reaction where approximately 3000 cpm of Putrescine were incorporated per hour in 10 ul of the reaction mixture. Serial dilutions of each antibody were then applied starting from adding 500 ng (5 ug/ml final concentration) to the reaction mixture and incubated with the TG2 for 20 minutes prior to activating the reaction. IC50 values were calculated by determining the concentration at which the enzymatic rate of reaction was reduced by 50% using an appropriate curve fit in graphpad prism. Values are expressed as the amount of IgG in […] in the reaction that would inhibit 1 ng of TG2.
(§2) TG activity is measured by the Ca^2+ dependent incorporation of ^3H-putrescine into N′,N′-dimethylcasein. Recombinant human TG2 (100 ng) was pre-incubated for twenty minutes at room temperature with the test sample (conditioned medium or purified IgG) before starting the reaction. […] The rate of reaction was calculated. […]

[3] = biological target: T1, human TG2; assay: 3H-putrescine incorporation TG activity assay with recombinant human TG2; settings: initial screen of conditioned medium, 100 ng of TG2
Protocol: as §1, §2

IC50 against rat TG2 [2]: 0.223 µg/mL | hybridoma supernatant ability to inhibit TG2 activity [3]: able to inhibit TG2 activity
B1: DH2: murine monoclonal anti-TG2 IgG, Group 3 (amino acids 450 to 467); VL SEQ ID NO: 89, VH SEQ ID NO: 90 (antibody, V domains shown)
VH: QVTLKESGPGILQPSQTLSLTCSFSGFSLSTSGMGVSWIRQPSGKGLEWLAHIYWDDDKRYNPSLKSRLTISKDTSSNQVFLKITSVDTADTATYYCARSGTTAPFAYWGQGTLVTVSA
VL: QIVLTQSPAIMSASPGEKVTMTCSASSSVSYMYWYQQKPGSSPRLLIYDTSNLASGVPVRFSGSGSGTSYSLTISRMEAEDAATFYCQQWSSSPLTFGAGTKLELK
modifications: DH-2 heavy chain variable region; DH-2 light chain variable region
inhibition of human TG2 transamidation (in words) [1]: consistently inhibited human TG2 transamidation, but with lower potency than group 1 antibodies

hybridoma supernatant ability to inhibit TG2 activity [3]: able to inhibit TG2 activity
B2: DD9: murine monoclonal anti-TG2 IgG, Group 3 (amino acids 450 to 467); VL SEQ ID NO: 87, VH SEQ ID NO: 88 (antibody, V domains shown)
VH: B1 VH with P42S, L69I, T75S, G101W, Y108F
VL: B1 VL with S30D, E78G, F85Y, S91N
modifications: DD-9 heavy chain variable region; DD-9 light chain variable region
inhibition of human TG2 transamidation (in words) [1]: consistently inhibited human TG2 transamidation, but with lower potency than group 1 antibodies
